According to paper PMC9911399, “Two distinct binding modes provide the RNA-binding protein RbFox with extraordinary sequence specificity”:
Numbering of substitutions follows the chain as printed; changes in the protein carry UniProt numbers. Some of the results follow.

T1: RBFOX1 RRM RbFoxmut (Fox-RRM*) (Homo sapiens, UniProt Q9NWB1 109-208, R118D;E147R;N151S;E152T)
T1 sequence: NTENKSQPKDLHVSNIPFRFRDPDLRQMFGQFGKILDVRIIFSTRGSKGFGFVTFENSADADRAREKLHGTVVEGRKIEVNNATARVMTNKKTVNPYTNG

B1: CCCCGAG (DNA:RNA)
RNA: GGGAGACCGGAAUUCAGAUUGUCCCCCCGAGUUAAAUCCCGUCGUAGCCACCA
DNA 1: CAATCTGAATTCCGGTCTCCC
DNA 2: TGGTGGCTACGACGGGATT
B2: AAGACCC (DNA:RNA)
RNA: GGGAGACCGGAAUUCAGAUUGUCCAAGACCCUUAAAUCCCGUCGUAGCCACCA
DNA 1: CAATCTGAATTCCGGTCTCCC
DNA 2: TGGTGGCTACGACGGGATT
B3: CCCAGAC (DNA:RNA)
RNA: B1 RNA with C28A, G31C
DNA 1: CAATCTGAATTCCGGTCTCCC
DNA 2: TGGTGGCTACGACGGGATT
B4: AGAUGCU (DNA:RNA)
RNA: B2 RNA with A26G, G27A, A28U, C29G, C31U
DNA 1: CAATCTGAATTCCGGTCTCCC
DNA 2: TGGTGGCTACGACGGGATT
B5: ACUUUAG (DNA:RNA)
RNA: B1 RNA with C25A, C27U, C28U, G29U
DNA 1: CAATCTGAATTCCGGTCTCCC
DNA 2: TGGTGGCTACGACGGGATT
B6: GGGUCUA (DNA:RNA)
RNA: B2 RNA with A25G, A26G, A28U, C30U, C31A
DNA 1: CAATCTGAATTCCGGTCTCCC
DNA 2: TGGTGGCTACGACGGGATT
B7: GUACAUC (DNA:RNA)
RNA: B2 RNA with A25G, A26U, G27A, A28C, C29A, C30U
DNA 1: CAATCTGAATTCCGGTCTCCC
DNA 2: TGGTGGCTACGACGGGATT
B8: AGCUCGU (DNA:RNA)
RNA: B2 RNA with A26G, G27C, A28U, C30G, C31U
DNA 1: CAATCTGAATTCCGGTCTCCC
DNA 2: TGGTGGCTACGACGGGATT
B9: UUGGCCG (DNA:RNA)
RNA: B2 RNA with A25U, A26U, A28G, C31G
DNA 1: CAATCTGAATTCCGGTCTCCC
DNA 2: TGGTGGCTACGACGGGATT
B10: CACAAAA (DNA:RNA)
RNA: B1 RNA with C26A, C28A, G29A, G31A
DNA 1: CAATCTGAATTCCGGTCTCCC
DNA 2: TGGTGGCTACGACGGGATT
B11: CAGUCGU (DNA:RNA)
RNA: B2 RNA with A25C, A28U, C30G, C31U
DNA 1: CAATCTGAATTCCGGTCTCCC
DNA 2: TGGTGGCTACGACGGGATT
B12: CUAAUGA (DNA:RNA)
RNA: B2 RNA with A25C, A26U, G27A, C29U, C30G, C31A
DNA 1: CAATCTGAATTCCGGTCTCCC
DNA 2: TGGTGGCTACGACGGGATT
B13: ACACUUG (DNA:RNA)
RNA: B1 RNA with C25A, C27A, G29U, A30U
DNA 1: CAATCTGAATTCCGGTCTCCC
DNA 2: TGGTGGCTACGACGGGATT
B14: ACCACGA (DNA:RNA)
RNA: B2 RNA with A26C, G27C, C30G, C31A
DNA 1: CAATCTGAATTCCGGTCTCCC
DNA 2: TGGTGGCTACGACGGGATT
B15: CUGGUCG (DNA:RNA)
RNA: B2 RNA with A25C, A26U, A28G, C29U, C31G
DNA 1: CAATCTGAATTCCGGTCTCCC
DNA 2: TGGTGGCTACGACGGGATT
B16: GGUACCG (DNA:RNA)
RNA: B2 RNA with A25G, A26G, G27U, C31G
DNA 1: CAATCTGAATTCCGGTCTCCC
DNA 2: TGGTGGCTACGACGGGATT
B17: UUUCGCU (DNA:RNA)
RNA: B1 RNA with C25U, C26U, C27U, A30C, G31U
DNA 1: CAATCTGAATTCCGGTCTCCC
DNA 2: TGGTGGCTACGACGGGATT
B18: ACACGAA (DNA:RNA)
RNA: B1 RNA with C25A, C27A, G31A
DNA 1: CAATCTGAATTCCGGTCTCCC
DNA 2: TGGTGGCTACGACGGGATT
B19: GAAUAAA (DNA:RNA)
RNA: B2 RNA with A25G, G27A, A28U, C29A, C30A, C31A
DNA 1: CAATCTGAATTCCGGTCTCCC
DNA 2: TGGTGGCTACGACGGGATT
B20: UAUCUCA (DNA:RNA)
RNA: B2 RNA with A25U, G27U, A28C, C29U, C31A
DNA 1: CAATCTGAATTCCGGTCTCCC
DNA 2: TGGTGGCTACGACGGGATT
B21: AACGAGA (DNA:RNA)
RNA: B2 RNA with G27C, A28G, C29A, C30G, C31A
DNA 1: CAATCTGAATTCCGGTCTCCC
DNA 2: TGGTGGCTACGACGGGATT
B22: ACAGGUA (DNA:RNA)
RNA: B1 RNA with C25A, C27A, C28G, A30U, G31A
DNA 1: CAATCTGAATTCCGGTCTCCC
DNA 2: TGGTGGCTACGACGGGATT
B23: GCUUGGU (DNA:RNA)
RNA: B1 RNA with C25G, C27U, C28U, A30G, G31U
DNA 1: CAATCTGAATTCCGGTCTCCC
DNA 2: TGGTGGCTACGACGGGATT
B24: AGCGAUA (DNA:RNA)
RNA: B2 RNA with A26G, G27C, A28G, C29A, C30U, C31A
DNA 1: CAATCTGAATTCCGGTCTCCC
DNA 2: TGGTGGCTACGACGGGATT
B25: CACCCUU (DNA:RNA)
RNA: B1 RNA with C26A, G29C, A30U, G31U
DNA 1: CAATCTGAATTCCGGTCTCCC
DNA 2: TGGTGGCTACGACGGGATT
B26: GCGCAUC (DNA:RNA)
RNA: B2 RNA with A25G, A26C, A28C, C29A, C30U
DNA 1: CAATCTGAATTCCGGTCTCCC
DNA 2: TGGTGGCTACGACGGGATT
B27: AGGCAUA (DNA:RNA)
RNA: B2 RNA with A26G, A28C, C29A, C30U, C31A
DNA 1: CAATCTGAATTCCGGTCTCCC
DNA 2: TGGTGGCTACGACGGGATT
B28: CAGUAAC (DNA:RNA)
RNA: B2 RNA with A25C, A28U, C29A, C30A
DNA 1: CAATCTGAATTCCGGTCTCCC
DNA 2: TGGTGGCTACGACGGGATT
B29: UCCCACC (DNA:RNA)
RNA: B1 RNA with C25U, G29A, A30C, G31C
DNA 1: CAATCTGAATTCCGGTCTCCC
DNA 2: TGGTGGCTACGACGGGATT
B30: CAAUUGA (DNA:RNA)
RNA: B2 RNA with A25C, G27A, A28U, C29U, C30G, C31A
DNA 1: CAATCTGAATTCCGGTCTCCC
DNA 2: TGGTGGCTACGACGGGATT
B31: UAACGGU (DNA:RNA)
RNA: B1 RNA with C25U, C26A, C27A, A30G, G31U
DNA 1: CAATCTGAATTCCGGTCTCCC
DNA 2: TGGTGGCTACGACGGGATT

The binders below were run against T1, RBFOX1 RRM RbFoxmut (Fox-RRM*) (assay: EMSA; HiTS-Eq, 1 nM pool, 10 min; buffer printed only for the single-RNA assays: 10 mM Tris pH 7.5, 150 mM NaCl, 3.4 mM EDTA, 0.001% NP-40, 30 C). Conditions: tags: His6 N-terminal (pET28a); label: 5' 32P.
Summary of the method: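 Purified RbFox RRM, wild type or mutant, was incubated for 10 min in 50 µL with 1 nM of a 5′-radiolabelled RNA pool carrying 7 randomized nucleotides, whose flanks were annealed to DNA oligonucleotides, over a series of increasing protein concentrations. Unbound RNA was resolved on 8% native PAGE, cut out, reverse-transcribed, barcoded by PCR and sequenced on an Illumina HiSeq 2500. Relative association constants were derived from changes in read counts for each RNA species versus the control reaction and normalised to the cognate motif.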

Binder	binding signal
B1	0.13 KA relative to UGCAUGU
B2	0.0462 KA relative to UGCAUGU
B3	0.0843 KA relative to UGCAUGU
B4	0.11 KA relative to UGCAUGU
B5	0.142 KA relative to UGCAUGU
B6	0.1 KA relative to UGCAUGU
B7	0.0863 KA relative to UGCAUGU
B8	0.148 KA relative to UGCAUGU
B9	0.24 KA relative to UGCAUGU
B10	0.0861 KA relative to UGCAUGU
B11	0.0966 KA relative to UGCAUGU
B12	0.114 KA relative to UGCAUGU
B13	0.137 KA relative to UGCAUGU
B14	0.112 KA relative to UGCAUGU
B15	0.211 KA relative to UGCAUGU
B16	0.165 KA relative to UGCAUGU

Binder	binding signal
B17	0.0799 KA relative to UGCAUGU
B18	0.0925 KA relative to UGCAUGU
B19	0.115 KA relative to UGCAUGU
B20	0.0853 KA relative to UGCAUGU
B21	0.0697 KA relative to UGCAUGU
B22	0.131 KA relative to UGCAUGU
B23	0.204 KA relative to UGCAUGU
B24	0.127 KA relative to UGCAUGU
B25	0.0738 KA relative to UGCAUGU
B26	0.49 KA relative to UGCAUGU
B27	0.11 KA relative to UGCAUGU
B28	0.114 KA relative to UGCAUGU
B29	0.0864 KA relative to UGCAUGU
B30	0.0875 KA relative to UGCAUGU
B31	0.0715 KA relative to UGCAUGU
